The campaign covered roughly 310,000 compounds. About 2,200 (0.71%) showed an effect of 50% or more. Effects have a minus sign here. The list shows a part of the results.
Molecular target: human ether-à-go-go-related gene (hERG) potassium channel (human, UniProt Q12809)
Experiment: primary screen, population patch clamp on CHO cells stably expressing hERG
Description: Briefly, Chinese hamster ovary (CHO) cells stably expressing the hERG channel were dislodged from tissue culture flasks and dispensed into PPC plates. […] During the recording, background leak currents were estimated by a 100 ms step to -80 mV from an initial holding potential of -70 mV and subtracted from the subsequent current measurement. The campaign was conducted in two phases using slight differences in recording protocol. In the first phase, the initial voltage pulse used a 100 ms step to -30 mV from a holding potential of -70 mV, a 2 s conditioning step to +25 mV, and a 2 s test step to -30 mV. During the second phase of the screen, the potential during the conditioning step was raised to +45 mV. In both phases of the campaign, a secondary voltage pulse was applied using the same parameters as the second phase initial pulse. The initial and secondary pulses were applied in the absence of compound, and upon application of 1 μM and 10 μM test concentrations. Small molecule effects on hERG current density were quantified by […].

Sequence of human ether-à-go-go-related gene (hERG) potassium channel (Q12809 whole entry, looked up): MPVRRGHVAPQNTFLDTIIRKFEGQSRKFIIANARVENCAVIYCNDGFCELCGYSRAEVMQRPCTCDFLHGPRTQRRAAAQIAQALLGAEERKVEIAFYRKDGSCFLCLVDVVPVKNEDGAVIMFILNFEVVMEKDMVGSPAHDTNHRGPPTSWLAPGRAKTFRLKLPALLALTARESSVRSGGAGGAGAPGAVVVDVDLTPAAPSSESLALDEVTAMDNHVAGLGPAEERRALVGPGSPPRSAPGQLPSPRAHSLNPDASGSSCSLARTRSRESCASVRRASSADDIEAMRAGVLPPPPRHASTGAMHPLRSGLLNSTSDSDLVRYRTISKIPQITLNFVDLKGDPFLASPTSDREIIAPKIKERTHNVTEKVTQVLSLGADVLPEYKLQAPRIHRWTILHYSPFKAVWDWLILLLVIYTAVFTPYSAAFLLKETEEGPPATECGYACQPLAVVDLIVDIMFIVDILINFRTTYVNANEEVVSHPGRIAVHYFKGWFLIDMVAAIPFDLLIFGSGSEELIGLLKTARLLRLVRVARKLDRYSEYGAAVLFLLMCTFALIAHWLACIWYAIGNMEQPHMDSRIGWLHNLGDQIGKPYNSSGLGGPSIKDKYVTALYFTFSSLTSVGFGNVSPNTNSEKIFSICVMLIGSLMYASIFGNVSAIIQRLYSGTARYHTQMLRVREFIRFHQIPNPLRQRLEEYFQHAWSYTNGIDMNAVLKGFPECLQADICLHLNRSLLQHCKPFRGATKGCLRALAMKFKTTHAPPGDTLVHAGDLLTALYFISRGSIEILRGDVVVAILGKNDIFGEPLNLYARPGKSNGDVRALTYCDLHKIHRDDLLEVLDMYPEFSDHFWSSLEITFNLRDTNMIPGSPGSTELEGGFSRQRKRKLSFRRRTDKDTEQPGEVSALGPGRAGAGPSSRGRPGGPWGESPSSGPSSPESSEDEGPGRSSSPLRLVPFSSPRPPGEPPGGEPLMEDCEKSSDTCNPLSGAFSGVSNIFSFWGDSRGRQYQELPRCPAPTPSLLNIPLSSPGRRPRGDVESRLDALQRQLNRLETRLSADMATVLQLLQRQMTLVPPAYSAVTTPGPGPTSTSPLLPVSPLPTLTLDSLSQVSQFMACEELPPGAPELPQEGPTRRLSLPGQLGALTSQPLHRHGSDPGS

SMILES	hERG current change (%, negative = inhibition) at 1uM
Cc1ccc(S(=O)(=O)Cn2nnnc2C(CC(C)C)N2CCN(C)CC2)cc1.Cl (stereo not drawn)	8.74%
N#Cc1ccc(-n2nccc2-c2cnc3n(c2=O)CCS3)cc1	14.8%
Cn1cc(C(=O)N2CCc3ccccc3C2)c(=O)c2cc(S(=O)(=O)N3CCCCC3)ccc21	-0.811%
O=C(O)C(Cc1c[nH]c2ccccc12)N1C(=O)C2C3c4ccccc4C(c4ccccc43)[C@@H]2C1=O (stereo partly drawn)	5.72%
COc1ccc(-n2c(C)ccc2C)c([N+](=O)[O-])c1	9.16%
CSc1cc(C)n(-c2ccccc2C)c(=S)c1C(C)=O	16.8%
COc1ccc(C)cc1Nc1nc(C)nc2sc(C)cc12	8.89%
O=C(c1ccc(Oc2ccc(Cl)cc2)c([N+](=O)[O-])c1)N1CCCC1	10.3%
O=C(Nc1nc2n(n1)C(c1ccccc1)CC(c1ccc(Cl)cc1)N2)c1ccco1 (stereo not drawn)	5.27%
COc1cc([C@@H]2Oc3cc(C4Oc5cc(O)cc(O)c5C(=O)[C@H]4O)ccc3O[C@H]2CO)ccc1O (stereo partly drawn)	5.38%
Cc1ccsc1C(=O)NCc1ccc(Cl)cc1	14.5%
CCCCn1c(=O)c(Cc2ccccc2)c(O)c2ccccc21	5.71%
O=S(=O)(Nc1cccc(-c2ccc(N3CCCCCC3)nn2)c1)c1ccccc1Cl	18.1%
CCC(C)NC(=O)Cn1nc(Cc2ccncc2)c2ccccc2c1=O (stereo not drawn)	10.1%
Cc1cccc(NS(=O)(=O)c2ccc(C3CCCCC3)cc2)n1	12.3%
O=C(CSc1nnc(-c2ccncc2)n1Cc1ccco1)Nc1cccc(O)c1	5.64%
O=C(NCCCN1CCC(Cc2ccccc2)CC1)C1CC(=O)N(C2CCCC2)C1 (stereo not drawn)	0.521%
CCC1=NN(C(=O)CCc2ccccc2)C(O)(C(F)(F)F)C1 (stereo not drawn)	10.9%
Cc1ccccc1-c1nc(C(=O)NCC2CCCO2)cc2c1[nH]c1ccccc12 (stereo not drawn)	6.42%
CCOc1ccc(OCC)c(NC(=O)C2CCN(S(=O)(=O)c3ccc4c(c3)CC(C)N4C(C)=O)CC2)c1 (stereo not drawn)	-19.3%
CC(=O)N1CC=C2C(C#N)=C(N)C(C#N)(C#N)[C@H](c3ccoc3)[C@H]2C1	-11.6%
O=C(Cc1cccs1)Nc1ccccc1	12.9%

SMILES	hERG current change (%, negative = inhibition) at 1uM
CCN(C(=O)c1cccs1)c1nnc(-c2ccncc2)s1	5.82%
NCCc1nnc(SCC(=O)Nc2cccc(Cl)c2)o1	20.6%
CCC/C=C1/CCCOC(C(=O)NCCN2CCOCC2)(C(F)(F)F)C1 (stereo not drawn)	13.2%
CCCN(CC1CC1)C(=O)COC(=O)c1ccc(CNS(=O)(=O)c2ccc(F)c(Cl)c2)cc1	5.17%
COc1ccc(S(=O)(=O)N2CCC(C(=O)Nc3ccc(OC)c(OC)c3)CC2)cc1C	11.8%
c1ccc2c(c1)CCCN2Cc1nnc2n1CCCCC2	12.5%
CCC(=O)Nc1ccc(C(=O)CSc2nnc(-c3ccc(NS(=O)(=O)CC)cc3)o2)cc1OC	10.1%
CCCS(=O)(=O)N1CCC(C(=O)NCCCN(CC)c2cccc(C)c2)CC1	-0.428%
NCCCC(=O)O	12%
CC1(C(=O)OCC(=O)Nc2ccc3ccccc3c2)CC1(Cl)Cl.CN(C)C=O (stereo not drawn)	11.2%
CC1CCN(C(=O)COC(=O)c2n[nH]c3ccccc23)CC1	6.97%
CCN(c1ccccc1)S(=O)(=O)c1ccc(C(=O)Nc2ccncc2)cc1	-0.477%
Cc1cccc(NC(=O)CSCC(=O)N(C)Cc2c(F)cccc2Cl)c1	-0.777%
CCn1c(NCc2c[nH]c3ccccc23)nc2ccccc21	7.83%
O=C(CSCc1cc(=O)n2ccsc2n1)Nc1ccc(F)cc1	10.1%
Cc1ccc(Cn2c(SC(C)C(N)=O)nc3ccccc3c2=O)cc1 (stereo not drawn)	11.3%
COc1cc2c(c(OCC(=O)NC(C)C)c1)C(=O)O[C@@H](C)CCCC(=O)CCCCC2	7.84%
COCc1ccc(CN2CCC(n3nccc3NC(=O)C(OC)c3ccccc3)CC2)o1 (stereo not drawn)	3.15%
COc1ccccc1OCC(=O)O	13.3%
NC(=O)CCN1CCC(c2nc3ccccc3s2)CC1	-16.1%
Clc1ccc2c(c1)-c1nnc(Br)n1-c1ccccc1S2	0.703%
CC1Cc2cc(/C(O)=C3/C(=O)C(=O)N(CCCn4ccnc4)C3c3cccc([N+](=O)[O-])c3)ccc2O1 (stereo not drawn)	15.1%

SMILES	hERG current change (%, negative = inhibition) at 1uM
Cc1nn(C)c(C(=O)NNC(=S)NCc2ccco2)c1Br	21%
Cc1ccc(S(=O)(=O)NCCC(=O)NCC(c2ccc(F)cc2)N2CCOCC2)cc1 (stereo not drawn)	5.76%
Cc1ccc(SCC(=O)OC(C)C(=O)NCc2ccccc2)cc1C (stereo not drawn)	-0.37%
Cc1ccc(NC(=O)CN(C)c2ccc(S(=O)(=O)N3CCN(C)CC3)cn2)cc1	1.76%
CC(=O)c1cccc(NC(=O)c2noc3c2CCc2ccccc2-3)c1	8.25%
O=C(CN1C(=O)NC2(CCCCCC2)C1=O)N1CCC(Cc2ccccc2)CC1	2.62%
CC(C)(C)C1CCc2nc(NC(=O)Cc3cn4ccsc4n3)sc2C1 (stereo not drawn)	-4.91%
CCn1c(C)nc2cc(C(=O)NNC(=O)c3ccc(C)cc3)ccc21	6.07%
Cc1nc2ccc(-c3nc4ccccc4o3)cc2[nH]1	-0.0617%
CC1CCCC(NC(=O)CN2C(=O)COc3ccccc32)C1C (stereo not drawn)	19.4%
COc1cccc(C(=O)N/N=C(\CC(C)C)c2ccccc2)c1	4.05%
Cc1nn(-c2ccccc2)c(Cl)c1/C=C1\SC(=S)N(C)C1=O	21.4%
CC(C)(C)c1ccc(C(=O)NNC(=O)Cc2cccc3ccccc23)cc1	11.8%
O=C(CN1C(=O)NC2(CCCC2)C1=O)OCc1ccc(Cl)c(Cl)c1	1.91%
O=C(CCSCCc1ccccn1)Nc1ccc(Br)cc1F	5.3%
O=C(NC1CCCC1)C1CCN(C(=O)c2ccc(-c3ccccc3)cc2)CC1	-3.8%
COc1ccccc1N1CCN(C(=O)c2cc3n(n2)C(C(F)(F)F)CC(c2ccco2)N3)CC1 (stereo not drawn)	7.96%
O=C1C2CCCCN2C(=O)N1CCCCN1CCN(c2cccc(Cl)c2)CC1 (stereo not drawn)	-27.8%
COc1ccc2[nH]c(C(=O)N/N=C/c3ccc(O)cc3O)cc2c1	15.5%
Clc1ccc(Nc2ncnc3c2cnn3-c2ccccc2)cc1	0.0786%
CC12CCC(=O)N1C(C(=O)Nc1nc3ccc(F)cc3s1)CS2 (stereo not drawn)	-5.23%
CC(Sc1nc2ccccc2n1C)C(=O)Nc1ccc(N2CCOCC2)cc1 (stereo not drawn)	6.2%

SMILES	hERG current change (%, negative = inhibition) at 1uM
Cc1ccccc1/C=C/C12NC(=O)CN1c1ccccc1C2(C)C (stereo not drawn)	11.9%
O=C(N/N=C\c1ccc(Cl)cc1)C1=NOC2COC3(CCN(c4ccc([N+](=O)[O-])cc4)CC3)OCC12 (stereo not drawn)	4.03%
CCCn1c(N)c(N(CCOC)C(=O)c2cc(C)cc(C)c2)c(=O)[nH]c1=O	10.1%
COc1ccc(-c2nnc(SCC(=O)NNC(=O)c3ccc(C)cc3)o2)cc1	-5.49%
COc1ccc(OCCCC(=O)Nc2cc(S(=O)(=O)N3CCCCC3)ccc2C)cc1	3.93%
NC(=O)CSc1nc2ccccc2nc1SCC(N)=O	8.87%
Cc1ccc(OCCC(=O)Nc2ccc3c(c2)OCCCO3)cc1	6%
Cc1ccc(S(=O)(=O)N(C)C)cc1NC(=O)COC(=O)/C(=C/c1ccc(F)cc1)c1cccs1	13.6%
COc1ccccc1NC(=S)NC(C)=O	14.4%
CC(C)C1CC(CCNCc2ccc3c(c2)OCO3)(c2ccccc2)CCO1.Cl (stereo not drawn)	-14.5%
COc1ccccc1N1CCN(C(=O)COc2ccc(S(=O)(=O)NC(C)C)cc2)CC1	16.6%
COc1ccc(NC(=O)c2oc3ccccc3c2C)c(OC)c1	4.15%
COC(=O)Cn1c(CCS(=O)(=O)c2ccc(C)cc2)nc2ccccc21	2.48%
O=C(N/N=C\c1ccc(Cl)cc1)c1sccc1-n1cccc1	-1.36%
COc1ccc(O)c(-c2c(-c3ccc(Cl)cc3)n[nH]c2C)c1	9.84%
COc1ccccc1NC(=O)COc1ccc(CO)cc1Cl	6.36%
CSc1ccccc1OCc1cc(C(=O)NCCC2CCCCO2)no1 (stereo not drawn)	7.41%
CS(=O)(=O)c1nc(-c2ccc(Br)cc2)n[nH]1	17.9%
CCCCn1c(N)c(N(CCC(C)C)C(=O)CSc2nnc3ccccn23)c(=O)[nH]c1=O	12.7%
COc1cc(Cl)ccc1OCc1cc(C(=O)N(C)Cc2cccc3cnccc23)no1	3.83%
O=C(Cn1nnc2ccccc21)OCC(=O)c1ccc(Cl)cc1	2.82%
